# About 500 (0.14%) of roughly 370,000 compounds were called active. This list was built around the results that the source calls inconclusive (neither active nor inactive); the mix of calls is not that of the screen. Calls follow the shape of the dose curve; as a rule, active = well fitted activation curve with a large enough effect; inconclusive = small, poorly fitted or top-dose-only effect; inactive = no such curve, though single readings can be large or run the other way. Potencies of inconclusive entries are left out as doubtful fits.
# Experiment: qHTS of alpha-syn Inhibitors; also: nearly all actives have a fitted effect of over 65% in size; as to growth rescue (activation): % of control where 0% means no effect
# Settings: Yeast expressing alpha-synuclein, BacTiter-Glo, 24 h; Potency: growth rescue unless noted; growth rescue (activation): at 46.1 µM (top of the series) unless noted
# Outline: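 Rescue of yeast growth: cells expressing toxic alpha-synuclein, induced in galactose at OD600 0.02, incubated with compound 24 h at 30 C. ATP luminescence quantified growth; inhibitors of toxicity appear as activators.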
# Potency is read from the fitted curve at half-maximal effect; tags tell the direction and shape of the fitted curve.
SMILES,Potency,growth rescue (activation)
O=C(CSc1nnc(CCc2ccccc2)n1-c1ccc(Cl)cc1)c1ccccc1,"inconclusive [activator, single point]",–
O=C(CCCSc1ccccc1)Nc1nc(-c2ccco2)c(-c2ccco2)s1,–,inactive: 0.925%
Oc1ccc(/C=N/NC(=S)Nc2cccnc2)cc1,–,inactive: -2.68%
COc1cc2sc3cc(NCc4ccc(C)o4)ccc3c(=O)c2cc1OC,"inconclusive [activator, single point]",–
O=C(O)CCCCCN1C(=O)/C(=C/c2ccncc2)SC1=S,"inconclusive [activator, single point]",–
O=C1c2cccc3cccc(c23)C(c2nc3ccccc3[nH]2)N1C1CC1 (stereo not drawn),"inconclusive [activator, single point]",–
COc1ccccc1NC(=O)Nc1ccccc1Br,"inconclusive [activator, single point]",–
C/C(=N\NC(=O)CNC(=O)c1ccncc1)c1ccc(C)cc1,"inconclusive [activator, single point]",–
COc1cc(OC)cc(C(=O)NNC(=O)c2ccc3ccccc3n2)c1,"inconclusive [activator, single point]",–
COCOCCn1cc(CN2CCS(=O)(=O)N(Cc3ccc(-c4ccc(OC)cc4)cc3)C(CC(C)C)C2=O)nn1 (stereo not drawn),"inconclusive [activator, single point]",–
CCNc1cc(N2CCCC2)ccc1[N+](=O)[O-],"inconclusive [activator, single point]",–
CCOc1ccccc1N1CCN(C(=O)c2ccc3[nH]c(C)c(C)c3c2)CC1,"inconclusive [activator, single point]",–
COc1ccc(CNc2oc(-c3ccccc3)nc2C#N)cc1,"inconclusive [activator, single point]",–
COc1ccccc1C(NC(=O)C1CCN(CCOc2ccc(Cl)cc2)CC1)c1ccccn1 (stereo not drawn),"inconclusive [activator, single point]",–
O=C(NNc1nc2ccc(Cl)cc2s1)c1cc(-c2cccs2)nc2ccccc12,"inconclusive [activator, single point]",–
COc1ccc(N)c2c1C(=O)c1ccccc1C2=O,–,inactive: -46.5%
Cc1c(Cl)cccc1N1C(=O)CC(Sc2ccccc2N)C1=O (stereo not drawn),–,inactive: 0.0838%
CCCCN(CCCC)S(=O)(=O)c1ccc(C(=O)Nc2nnc(COC)o2)cc1,"inconclusive [activator, single point]",–
Clc1cccc(Cc2c(-c3ccco3)nc3ccc(Cl)cn23)c1,–,inconclusive: -69.7% [activator]
COc1ccc(C2CCCN2C(=S)Nc2ccccc2C)cc1OC (stereo not drawn),–,inactive: 14.7%
O=C(c1cccc(Cl)c1)N1CCC(=O)N([C@H](COCc2ccccc2)Cc2ccccc2)CC1,–,inactive: 26.4%
O=C(NCCNC(=O)c1ccccc1Br)c1ccccc1Br,"inconclusive [activator, single point]",–
CCCCSc1nc(C)nc2c1c(=O)n(C)c(=O)n2C,"inconclusive [activator, single point]",–

SMILES,Potency,growth rescue (activation)
CCOC(=O)C(=O)Nc1nc(-c2ccccc2)c(-c2ccccc2)o1,"inconclusive [activator, single point]",–
Cc1cccc(C)c1NC(=S)N1CCC(c2ccccc2)C1 (stereo not drawn),–,inactive: 5.48%
OC(Cn1cncn1)c1ccc(Cl)cc1Cl (stereo not drawn),"inconclusive [activator, single point]",–
COc1ccc(C)cc1-n1nnnc1SCC1CCCCO1 (stereo not drawn),"inconclusive [activator, single point]",–
O=C(CCl)N1c2ccccc2OCC1c1ccccc1 (stereo not drawn),–,inactive: 10.9%
CCOCCn1c(CN2CCN(CCO)CC2)nc2c1c(=O)n(C)c(=O)n2C,"inconclusive [activator, single point]",–
Cc1ccc(O)c(NC(=S)NC(=O)Cc2ccc(Cl)cc2)c1,"inconclusive [activator, single point]",–
COc1ccc(/C=N/NC(=O)c2cccc(OC(F)(F)C(F)F)c2)cc1O,"inconclusive [activator, single point]",–
O=C(Nc1ccon1)c1cnc2sccn2c1=O,–,inactive: -8.27%
CCc1ccc(/C=C2\SC(=S)N(CCC(=O)N3CCN(C)CC3)C2=O)cc1,"inconclusive [activator, single point]",–
COc1ccc(CC(=O)NCc2cccc(CNC(=O)Cc3ccc(OC)c(OC)c3)c2)cc1OC,–,inactive: 1.8%
Cc1ccccc1-n1c(C)nnc1SC(C)C(=O)NCC1CCCO1 (stereo not drawn),"inconclusive [activator, single point]",–
COc1ccc(-c2cn3cc(C)ccc3n2)cc1OC,"inconclusive [activator, single point]",–
CCOC(=O)c1ccc(N/C=C/C(=O)c2ccc(OC)c(OC)c2)cc1,"inconclusive [activator, partial curve]",–
O=C(NNC(=O)C(c1ccccc1)c1ccccc1)c1ccccn1,"inconclusive [activator, single point]",–
Cc1ccc2c(c1)N(CC(=O)NC1CCCC1)C(=O)c1cccnc1O2,"inconclusive [activator, single point]",–
c1ccc(-c2nnc(CSc3ccc4c(c3)OCCO4)o2)cc1,–,inactive: 7.03%
CC(=O)c1cccc(NC(=O)COC(=O)COc2c(Cl)cc(Cl)c3ccc(C)nc23)c1,"inconclusive [activator, partial curve]",–
O=C(Nc1ccccc1Oc1ccccc1)c1cccc([N+](=O)[O-])c1,"inconclusive [activator, single point]",–
COc1ccc(CCNC(=O)Cn2c(=O)n(-c3ccc(F)cc3)c(=O)c3sccc32)cc1OC,active: 0.562 µM,–
COc1nc(N(c2ccccc2)c2ccccc2)nc(-n2ccnc2)n1,"inconclusive [activator, single point]",–
CCOC(=O)Cn1c(=O)n(-c2ccccc2OC)c2nc(-c3cccc(F)c3)nc(C(N)=O)c21,"inconclusive [activator, single point]",–
CC1C(c2ccccc2)OCCN1C(=S)Nc1ccc(S(=O)(=O)N2CCCCC2)cc1 (stereo not drawn),–,inconclusive: -63.9% [activator]

SMILES,Potency,growth rescue (activation)
COc1ccc(C(=O)CSc2nnc(CNC(=O)c3ccco3)n2C)cc1OC,–,inactive: 1.54%
CC(=O)OC[C@@H]1CN(Cc2ccccc2)C[C@H](n2cnc3c(N4CCN(c5ccccc5)CC4)ncnc32)O1,–,inactive: 0.362%
O=C(/C=C/c1ccc(Cl)cc1)NCCCn1ccnc1,"inconclusive [activator, single point]",–
O=S(Cc1ccc(Br)cc1)Cc1nnc(SCc2ccc(Br)cc2)n1-c1ccccc1 (stereo not drawn),"inconclusive [activator, single point]",–
Cc1nnc(SCc2nc(N)nc(Nc3ccccc3)n2)s1,–,inactive: -0.733%
CN(Cc1ccccc1)C(=O)c1ccc(Nc2nc(C(N)Cc3ccccc3)cs2)nc1 (stereo not drawn),"inconclusive [activator, partial curve, poor fit]",–
COc1ccc(C2=NS(=O)(=O)N(C)C(C(=O)Nc3ccc(OC)c(OC)c3)=C2)cc1,"inconclusive [activator, single point]",–
CCC(=O)NC(c1ccco1)c1cc(Cl)c2cccnc2c1O (stereo not drawn),active: 11.2 µM,–
COCC(C)n1c(SCC(=O)Nc2nccs2)nc2ccccc2c1=O (stereo not drawn),"inconclusive [activator, single point]",–
COc1ccc(OC)c(NC(=O)CSc2ncccn2)c1,"inconclusive [activator, single point]",–
OCC1NCC(O)C(O)C1O (stereo not drawn),–,inactive: -7.79%
CC(C)N(C(=O)CSc1nnc(-c2cc3ccccc3cc2O)n1Cc1ccco1)C(C)C,–,inactive: 17.6%
CCOC(=O)c1[nH]ncc1CN1CCCC(C(=O)c2cccc3ccccc23)C1 (stereo not drawn),–,inactive: -0.205%
CN(C)c1ccc(CNn2cnnc2SCC(=O)NC(C)(C)C)cc1,–,inactive: 0.189%
CC(=O)NC(=S)NNC(=O)CCc1ccccc1,"inconclusive [activator, single point]",–
Cc1nn2c(-c3ccccc3)nnc2c2ccccc12,"inconclusive [activator, partial curve]",–
COc1ccccc1N1CCN(C(=O)Cn2cnc3onc(-c4ccc(F)cc4)c3c2=O)CC1,"inconclusive [activator, single point]",–
CCOc1ccc(S(=O)(=O)NCc2ccc3c(c2)OCO3)cc1NC(C)=O,"inconclusive [activator, single point]",–
COc1cccc(C(O)c2nc(-c3ccc(F)cc3OC)cs2)c1 (stereo not drawn),"inconclusive [activator, partial curve]",–
COc1ccc(/C=C/C(=O)NC(=S)NNC(=O)c2ccco2)cc1,–,inactive: 24.4%
O=C(Nc1ccc(N2CCOCC2)cc1)c1cc2c(s1)CCCCC2,–,inactive: -2.83%
Cc1cc(C)c(N2C(=O)CC(Sc3ccccc3N)C2=O)c(C)c1 (stereo not drawn),"inconclusive [activator, single point]",–

# Source: PubChem BioAssay AID652106 (National Center for Advancing Translational Sciences (NCATS), 2013)
